Our source for the binding values is publication PMC12153800.

Sequences of proteins named here, by UniProt entry; tags and fusion partners are left off. Residues count along the entry.
UniProt Q9EQD0, residues 27-585: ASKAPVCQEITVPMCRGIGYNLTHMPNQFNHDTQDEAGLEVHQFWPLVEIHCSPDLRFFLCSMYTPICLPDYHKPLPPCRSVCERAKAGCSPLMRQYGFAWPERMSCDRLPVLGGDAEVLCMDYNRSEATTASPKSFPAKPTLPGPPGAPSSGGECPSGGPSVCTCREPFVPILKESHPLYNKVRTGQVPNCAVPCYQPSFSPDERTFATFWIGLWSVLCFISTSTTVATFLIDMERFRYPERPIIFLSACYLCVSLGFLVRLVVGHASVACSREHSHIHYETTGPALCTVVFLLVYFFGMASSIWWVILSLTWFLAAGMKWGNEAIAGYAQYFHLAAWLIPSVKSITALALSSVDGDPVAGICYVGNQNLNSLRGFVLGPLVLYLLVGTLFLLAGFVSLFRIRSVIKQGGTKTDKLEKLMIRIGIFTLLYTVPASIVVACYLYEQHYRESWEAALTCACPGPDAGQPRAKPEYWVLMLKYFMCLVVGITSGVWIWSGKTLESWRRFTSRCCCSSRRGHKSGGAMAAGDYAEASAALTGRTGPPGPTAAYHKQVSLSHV

No constants are given. Whether binding was seen depends on the method and setting. Some binding calls cover weakened binding; strength is not graded here. Tags and fused reporters may be left off the sequences shown.

The assay addresses HiBiT-FZD5-mCherry (NCI-H1703 cells) (mouse) (UniProt Q9EQD0). Description: confocal microscopy of fluorescent ligand on live cells; NCI-H1703 cells stably expressing HiBiT-FZD(4,5,8,10)-mCherry incubated with eGFP-Wnt conditioned medium (1 h in the methods, 3 h in the legend of Figure 1A), then imaged.

B1: eGFP-Wnt9a (ligand, UniProt O14904 30-365)
chain: YFGLTGSEPLTILPLTLEPEAAAQAHYKACDRLKLERKQRRMCRRDPGVAETLVEAVSMSALECQFQFRFERWNCTLEGRYRASLLKRGFKETAFLYAISSAGLTHALAKACSAGRMERCTCDEAPDLENREAWQWGGCGDNLKYSSKFVKEFLGRRSSKDLRARVDFHNNLVGVKVIKAGVETTCKCHGVSGSCTVRTCWRQLAPFHEVGKHLKHKYETALKVGSTTNEAAGEAGAISPPRGRASGAGGSDPLPRTPELVHLDDSPSFCLAGRFSPGTAGRRCHREKNCESICCGRGHNTQSRVVTRPCQCQVRWCCYVECRQCTQREEVYTCKG
On to B1, for which the binding entry was “binds”.

B2: eGFP-Wnt8a (ligand, UniProt Q9H1J5 25-351)
chain: VNNFLITGPKAYLTYTTSVALGAQSGIEECKFQFAWERWNCPENALQLSTHNRLRSATRETSFIHAISSAGVMYIITKNCSMGDFENCGCDGSNNGKTGGHGWIWGGCSDNVEFGERISKLFVDSLEKGKDARALMNLHNNRAGRLAVRATMKRTCKCHGISGSCSIQTCWLQLAEFREMGDYLKAKYDQALKIEMDKRQLRAGNSAEGHWVPAEAFLPSAEAELIFLEESPDYCTCNSSLGIYGTEGRECLQNSHNTSRWERRSCGRLCTECGLQVEERKTEVISSCNCKFQWCCTVKCDQCRHVVSKYYCARSPGSAQSLGKGSA
Consider B2, for which the binding result is “binds”.

B3: eGFP-Wnt6 (ligand, UniProt Q9Y6F9 25-365)
chain: LWWAVGSPLVMDPTSICRKARRLAGRQAELCQAEPEVVAELARGARLGVRECQFQFRFRRWNCSSHSKAFGRILQQDIRETAFVFAITAAGASHAVTQACSMGELLQCGCQAPRGRAPPRPSGLPGTPGPPGPAGSPEGSAAWEWGGCGDDVDFGDEKSRLFMDARHKRGRGDIRALVQLHNNEAGRLAVRSHTRTECKCHGLSGSCALRTCWQKLPPFREVGARLLERFHGASRVMGTNDGKALLPAVRTLKPPGRADLLYAADSPDFCAPNRRTGSPGTRGRACNSSAPDLSGCDLLCCGRGHRQESVQLEENCLCRFHWCCVVQCHRCRVRKELSLCL
Regarding B3, the binding result was “binds”.

B4: eGFP-Wnt11 (ligand, UniProt O96014 25-354)
chain: IKWLALSKTPSALALNQTQHCKQLEGLVSAQVQLCRSNLELMHTVVHAAREVMKACRRAFADMRWNCSSIELAPNYLLDLERGTRESAFVYALSAAAISHAIARACTSGDLPGCSCGPVPGEPPGPGNRWGGCADNLSYGLLMGAKFSDAPMKVKKTGSQANKLMRLHNSEVGRQALRASLEMKCKCHGVSGSCSIRTCWKGLQELQDVAADLKTRYLSATKVVHRPMGTRKHLVPKDLDIRPVKDSELVYLQSSPDFCMKNEKVGSHGTQDRQCNKTSNGSDSCDLMCCGRGYNPYTDRVVERCHCKYHWCCYVTCRRCERTVERYVCK
As for B4, the binding entry is on record as “no binding”.

B5: eGFP-Wnt7a (ligand, UniProt O00755 32-349)
chain: LGASIICNKIPGLAPRQRAICQSRPDAIIVIGEGSQMGLDECQFQFRNGRWNCSALGERTVFGKELKVGSREAAFTYAIIAAGVAHAITAACTQGNLSDCGCDKEKQGQYHRDEGWKWGGCSADIRYGIGFAKVFVDAREIKQNARTLMNLHNNEAGRKILEENMKLECKCHGVSGSCTTKTCWTTLPQFRELGYVLKDKYNEAVHVEPVRASRNKRPTFLKIKKPLSYRKPMDTDLVYIEKSPNYCEEDPVTGSVGTQGRACNKTAPQASGCDLMCCGRGYNTHQYARVWQCNCKFHWCCYVKCNTCSERTEMYTCK
For the molecule B5, the binding entry is “binds”.

B6: eGFP-Wnt1 (ligand, UniProt P04628 28-370)
chain: ANSSGRWWGIVNVASSTNLLTDSKSLQLVLEPSLQLLSRKQRRLIRQNPGILHSVSGGLQSAVRECKWQFRNRRWNCPTAPGPHLFGKIVNRGCRETAFIFAITSAGVTHSVARSCSEGSIESCTCDYRRRGPGGPDWHWGGCSDNIDFGRLFGREFVDSGEKGRDLRFLMNLHNNEAGRTTVFSEMRQECKCHGMSGSCTVRTCWMRLPTLRAVGDVLRDRFDGASRVLYGNRGSNRASRAELLRLEPEDPAHKPPSPHDLVYFEKSPNFCTYSGRLGTAGTAGRACNSSSPALDGCELLCCGRGHRTRTQRVTERCNCTFHWCCHVSCRNCTHTRVLHECL
For the molecule B6, the binding result is reported as “binds”.
